The other results are listed elsewhere or left out. Most values come without repeats; read them as rough.
The compounds below were run on WM1716 (assay: cell count relative to DMSO control; melanoma cells; higher = more viable cells). Conditions: library dose: low library concentration; 72 h.
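Also: cell number obtained by counting DAPI-stained nuclei in high-throughput microscope images with image analysis software, screen run in 1,536-well plates.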

Question: How did the cell count turn out when `C=CCn1c(=O)c2cnc(Nc3ccc(N4CCN(C)CC4)cc3)nc2n1-c1cccc(C(C)(C)O)n1` + C[C@@H]1CCN(C(=O)CC#N)C[C@@H]1N(C)c1ncnc2[nH]ccc12 [CP690550] (first compound 0.02 µM, partner dose 1 µM) was run?
Answer: The cell count was 77.4%.

Question: With `CO[C@@H]1[C@H](N(C)C(=O)c2ccccc2)C[C@H]2O[C@]1(C)n1c3ccccc3c3c4c(c5c6ccccc6n2c5c31)C(=O)NC4` [Midostaurin] + O=C(Nc1ccccc1)c1cc([N+](=O)[O-])ccc1Cl [GW9662] (first compound 0.08 µM, partner dose 2 µM) as the compound, how does the cell count read?
Answer: The cell count was 92.7%.

Question: `NC(=O)Nc1cc(-c2cccc(F)c2)sc1C(=O)N[C@H]1CCCNC1` + COc1ccc(-c2ccc3c(N4CCOCC4)nc(N4C[C@@H](C)O[C@@H](C)C4)nc3n2)cc1CO [KU0063794] (first compound 0.02 µM, partner dose 0.02 µM) was tested. Which cell count did it give?
Answer: The cell count was 92.4%.

Question: `CO[C@@H]1[C@H](N(C)C(=O)c2ccccc2)C[C@H]2O[C@]1(C)n1c3ccccc3c3c4c(c5c6ccccc6n2c5c31)C(=O)NC4` [Midostaurin] + Oc1nc(-c2ccc(C(F)(F)F)cc2)nc2c1CSCC2 [XAV939] (first compound 0.08 µM, partner dose 2 µM) was tested. Which cell count did it give?
Answer: The cell count was 48.6%.

Question: With `C[C@]1(c2nc3c(C(N)=O)cccc3[nH]2)CCCN1` [Veliparib] + Cc1cc(N2CCOCC2)cc2[nH]c(-c3c(NC[C@@H](O)c4cccc(Cl)c4)cc[nH]c3=O)nc12 [BMS536924] (first compound 1.4 µM, partner dose 0.2 µM) as the compound, how does the cell count read?
Answer: The cell count was 97.2%.

Question: For `CN(C)S(=O)(=O)c1ccc2c(c1)/C(=C/c1cc3c([nH]1)CCCC3)C(=O)N2` + CCCCCCCCCCCC1=C(O)C(=O)C=C(O)C1=O [Embelin] (first compound 0.4 µM, partner dose 1.2 µM), which cell count is on record?
Answer: The cell count was 114%.

Question: `C[C@]1(c2nc3c(C(N)=O)cccc3[nH]2)CCCN1` [Veliparib] + c1cc(-c2cnn3cc(-c4ccc(OCCN5CCCCC5)cc4)cnc23)ccn1 [Dorsomorphin] (first compound 1.4 µM, partner dose 0.4 µM) was tested. Which cell count did it give?
Answer: The cell count was 99.2%.

Question: Which cell count does the source give for `NC(=O)Nc1cc(-c2cccc(F)c2)sc1C(=O)N[C@H]1CCCNC1` + Cn1cc(/C=C2\C(=O)Nc3cccnc32)c2ccccc21 [GW441756] (first compound 0.02 µM, partner dose 0.4 µM) here?
Answer: The cell count was 104%.

Question: For `CN(C)S(=O)(=O)c1ccc2c(c1)/C(=C/c1cc3c([nH]1)CCCC3)C(=O)N2` + Cc1cc([N+](=O)[O-])ccc1NS(=O)(=O)c1cc(Cl)ccc1Cl [FH535] (first compound 0.4 µM, partner dose 1 µM), which cell count is on record?
Answer: Its cell count is 103%.

Question: For `NC(=O)Nc1cc(-c2cccc(F)c2)sc1C(=O)N[C@H]1CCCNC1` + O=C(Nc1ccccc1)c1cc([N+](=O)[O-])ccc1Cl [GW9662] (first compound 0.02 µM, partner dose 2 µM), which cell count is on record?
Answer: The cell count was 107%.

Question: Which cell count does the source give for `C[C@]1(c2nc3c(C(N)=O)cccc3[nH]2)CCCN1` [Veliparib] + O=C(O)C(=O)Nc1sc2c(c1C(=O)O)CCNC2 [TCS401] (first compound 1.4 µM, partner dose 1.66667 µM) here?
Answer: The cell count was 96.6%.

Question: How did the cell count turn out when `CO[C@@H]1[C@H](N(C)C(=O)c2ccccc2)C[C@H]2O[C@]1(C)n1c3ccccc3c3c4c(c5c6ccccc6n2c5c31)C(=O)NC4` [Midostaurin] + NC(=O)Nc1cc(-c2cccc(F)c2)sc1C(=O)N[C@H]1CCCNC1 [AZD7762] (first compound 0.08 µM, partner dose 0.02 µM) was run?
Answer: Its cell count is 70.2%.

Question: With `CN(C)S(=O)(=O)c1ccc2c(c1)/C(=C/c1cc3c([nH]1)CCCC3)C(=O)N2` + CN(NC(=O)CC(=O)NN(C)C(=S)c1ccccc1)C(=S)c1ccccc1 [STA4783] (first compound 0.4 µM, partner dose 0.006 µM) as the compound, how does the cell count read?
Answer: The cell count was 74.5%.

Question: With `CO[C@@H]1[C@H](N(C)C(=O)c2ccccc2)C[C@H]2O[C@]1(C)n1c3ccccc3c3c4c(c5c6ccccc6n2c5c31)C(=O)NC4` [Midostaurin] + CC(C)CCN1c2nc(Nc3cc(F)c(O)c(F)c3)ncc2N(C)C(=O)C1C [BID1870] (first compound 0.08 µM, partner dose 0.2 µM) as the compound, how does the cell count read?
Answer: The cell count was 76.1%.

Reference: the supplement of paper PMC4604168 (melanoma cell lines)
